{"source": "PubChem BioAssay AID686978", "about": "(National Center for Advancing Translational Sciences (NCATS), 2013)", "note": "Hit rate of the full screen: of about 420,000 compounds, about 64,000 (15%) were called active. Inconclusive means that the source gave no clear call. Such entries were picked first, then a sample of the others. Calls follow the shape of the dose curve; as a rule, active = well fitted inhibition curve with a large enough effect; inconclusive = small, poorly fitted or top-dose-only effect; inactive = flat fitted curve, though single readings scatter. Potencies of inconclusive entries are left out as doubtful fits. % is scaled to controls: 0 for no effect and ±100 for the full control effect; potency is read from the fitted curve at half-maximal effect; tags tell the direction and shape of the fitted curve.", "data": [{"assay": "qHTS for Inhibitors of human tyrosyl-DNA phosphodiesterase 1 (TDP1): qHTS in cells in absence of CPT; also: nearly all actives have a fitted effect of over 55% in size", "conditions": "DT40 Tdp1-/- hTDP1 cells, no CPT, ATP luminescence, 48 h; activity change, negative = growth inhibition: at 46.2 µM (top of the series) unless noted", "method_in_brief": "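Chicken DT40 Tdp1-/- cells complemented with human TDP1, screened without camptothecin (DMSO vehicle only), 400 cells/well. Compounds pin-transferred, cells incubated at 37 °C for at least 48 hr. Growth read as ATP-dependent luminescence (CellTiter-Glo, 30 min at RT).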", "values": [{"smiles": "CCN(CC)CCCCCC(=O)Nc1ccccc1C(=O)Nc1ccccc1", "activity change, negative = growth inhibition": "inactive: 6.51%"}, {"smiles": "CCCCCN(C(=O)CCC(=O)OCCOc1ccc(OCC)cc1)c1c(N)n(CCCC)c(=O)[nH]c1=O", "activity change, negative = growth inhibition": "inactive: -23.8%"}, {"smiles": "CN(C)S(=O)(=O)c1ccc(NC(=O)CNc2cc(S(=O)(=O)N3CCCC3)ccc2OCC(F)(F)F)cc1", "Potency": "active: 18.4 µM"}, {"smiles": "CC1CCCCN1CCNC(=O)c1cc2c(-c3ccccc3F)nn(C)c2s1", "note": "(centres undefined)", "Potency": "inconclusive [inhibitor, single point]"}, {"smiles": "COc1ccc(C(=O)N2CCC3(CCN(Cc4ccc(C#N)cc4)CC3)CC2)cc1", "Potency": "inconclusive [inhibitor, single point]"}, {"smiles": "COC(=O)C1=C(N)Oc2c(oc(CO)cc2=O)C1c1c(F)cccc1Cl", "note": "(centres undefined)", "Potency": "inconclusive [inhibitor, single point]"}, {"smiles": "CCc1ccc(/C=C/C(=O)c2ccc(S(=O)(=O)N(C)C)cc2)cc1", "Potency": "inconclusive [inhibitor, single point]"}, {"smiles": "N#Cc1ccsc1NC(=O)c1ccc2ncsc2c1", "Potency": "inconclusive [inhibitor, single point]"}, {"smiles": "C=C(C)CN=CC1(C)CCC(C)=CO1", "note": "(centres undefined)", "Potency": "active: 18.4 µM"}, {"smiles": "CN1CC(=O)N(CC(=O)N2N=C(c3ccc(Cl)cc3)CC2c2ccco2)C1=O", "note": "(centres undefined)", "Potency": "inconclusive [inhibitor, partial curve]"}, {"smiles": "CC(C)OC(=O)c1sc2nc(-c3ccccc3)ccc2c1N", "Potency": "inconclusive [inhibitor, partial curve]"}, {"smiles": "Nc1cc([N+](=O)[O-])ccc1O", "Potency": "inconclusive [inhibitor, single point]"}, {"smiles": "Cc1cc(NC(=O)CSCC(=O)N(C)Cc2cccc(Cl)c2)no1", "activity change, negative = growth inhibition": "inactive: -17.9%"}, {"smiles": "COc1cccc(CN2CCNC(=O)C2CC(=O)NCCOc2cccnc2)c1", "note": "(centres undefined)", "activity change, negative = growth inhibition": "inactive: 3.47%"}, {"smiles": "O=C(O)c1ccccc1/C=N/NC(=O)c1cc(-c2ccco2)nc2ccccc12", "activity change, negative = growth inhibition": "inactive: 1.22%"}, {"smiles": "COc1ccccc1CNC(=O)Cc1csc2nc(-c3ccc(Cl)cc3)cn12", "Potency": "inconclusive [inhibitor, single point]"}, {"smiles": "CC(C)(C)n1nnnc1C(c1ccccc1)N1CCc2ccccc2C1", "note": "(centres undefined)", "activity change, negative = growth inhibition": "inconclusive: -34.2% [inhibitor]"}, {"smiles": "CC(C)CNc1ncnc2oc(-c3ccco3)c(-c3ccco3)c12", "Potency": "inconclusive [inhibitor, single point]"}, {"smiles": "OCCC#Cc1ccc(N2C(c3ccsc3)=Cc3ccc(F)cc3C2c2c[nH]c3ccccc23)cc1", "note": "(centres undefined)", "Potency": "inconclusive [inhibitor, single point]"}, {"smiles": "Cc1ccc(S(=O)(=O)N(C)C)cc1NC(=O)c1cc(-c2ccncc2)nc2ccccc12", "Potency": "active: 4.11 µM"}, {"smiles": "O=C(Nc1ccccc1)NC1CCCCNC1=O", "note": "(centres undefined)", "activity change, negative = growth inhibition": "inactive: -7.48%"}, {"smiles": "c1ccc(-c2cc(-c3ccccc3)[nH]n2)cc1", "activity change, negative = growth inhibition": "inactive: -8.4%"}, {"smiles": "CC(C)CSc1ncc(-c2cccc(C(F)(F)F)c2)cn1", "Potency": "inconclusive [inhibitor, single point]"}, {"smiles": "Cc1ccccc1Nc1nc(N)nc(CSc2nnnn2-c2ccccc2)n1", "Potency": "inconclusive [inhibitor, single point]"}, {"smiles": "O=c1c2ccccc2oc2nc3n(c(=O)c12)CCCS3", "activity change, negative = growth inhibition": "inconclusive: -31.9% [inhibitor]"}, {"smiles": "CCN(C(=O)COC(=O)c1nn(-c2ccccc2)c(=O)c2ccccc12)C1CCS(=O)(=O)C1", "note": "(centres undefined)", "activity change, negative = growth inhibition": "inactive: -6.56%"}, {"smiles": "O=C(Nc1ccccc1C(F)(F)F)C1CCCC1", "activity change, negative = growth inhibition": "inactive: 3.82%"}, {"smiles": "COc1ccc(N(Cc2cc3ccc(C)cc3[nH]c2=O)C(=O)C2CCCO2)cc1", "note": "(centres undefined)", "activity change, negative = growth inhibition": "inactive: -2.69%"}, {"smiles": "Cc1ccc(NC(=S)N(Cc2cccc(Br)c2)CC2CCC(C(=O)O)CC2)cc1Cl", "note": "(centres undefined)", "activity change, negative = growth inhibition": "inactive: 1.14%"}, {"smiles": "CCCc1cc(=O)[nH]c(SCC(=O)Nc2ccc([N+](=O)[O-])cc2C#N)n1", "activity change, negative = growth inhibition": "inactive: -28.7%"}, {"smiles": "COc1ccc(C(=O)Cn2c(=N)n(C)c3ccccc32)cc1", "Potency": "active: 20.6 µM"}, {"smiles": "Clc1ccc(CO/N=C2\\CCCc3nonc32)c(Cl)c1", "Potency": "inconclusive [inhibitor, partial curve]"}, {"smiles": "O=C(CSc1n[nH]c(=O)n1Cc1ccccc1)Nc1ccc(F)c(F)c1F", "Potency": "inconclusive [inhibitor, single point]"}, {"smiles": "O=[N+]([O-])c1ccc(SCCc2ccccn2)cc1", "activity change, negative = growth inhibition": "inactive: -29.1%"}, {"smiles": "COc1ccc(N2CC(C(=O)Nc3c(C(N)=O)oc4ccccc34)CC2=O)cc1", "note": "(centres undefined)", "activity change, negative = growth inhibition": "inactive: -19.1%"}, {"smiles": "CCCOc1ccc(NC(=O)CC2C(=O)N(C)C(=S)N2Cc2cccs2)cc1", "note": "(centres undefined)", "Potency": "inconclusive [inhibitor, single point]"}, {"smiles": "O=C(NCCCN1CCOCC1)c1ccc2c(c1)N(Cc1ccccc1)C(=O)c1ccccc1S2=O", "note": "(centres undefined)", "activity change, negative = growth inhibition": "inactive: 0.242%"}, {"smiles": "O=C(NNc1ccc([N+](=O)[O-])cc1[N+](=O)[O-])c1ccco1", "Potency": "active: 20.6 µM"}, {"smiles": "Cn1c(=O)c(C(=O)NNC(=O)c2ccccc2Br)c(O)c2ccccc21", "Potency": "inconclusive [inhibitor, single point]"}, {"smiles": "COc1cc(C(O)c2nc(-c3cnn(C)c3)cs2)ccc1F", "note": "(centres undefined)", "activity change, negative = growth inhibition": "inconclusive: -31.4% [inhibitor]"}, {"smiles": "CC1CCCCN1C(=O)/C=C/c1ccccc1[N+](=O)[O-]", "note": "(centres undefined)", "Potency": "inconclusive [inhibitor, full curve, poor fit]"}, {"smiles": "COc1ccc(NC(=O)COc2ccc(/C=N/n3c(C)nnc3C)cc2OC)cc1", "Potency": "inconclusive [inhibitor, single point]"}, {"smiles": "O=c1oc2c(CN3CCOCC3)c(O)ccc2cc1-c1ccc(Cl)cc1", "Potency": "inconclusive [inhibitor, partial curve]"}, {"smiles": "CCOC(=O)CNC(=O)C(Cc1ccccc1)NS(=O)(=O)c1cccs1", "note": "(centres undefined)", "activity change, negative = growth inhibition": "inactive: -4.66%"}, {"smiles": "COc1ccc(C2C(C(=O)N3CCN(c4ccc(OC)cc4)CC3)c3ccccc3C(=O)N2C)cc1", "note": "(centres undefined)", "Potency": "inconclusive [inhibitor, single point]"}, {"smiles": "CN1CCN(Cc2c(O)ccc3c(=O)c(Oc4ccccc4Cl)c(C(F)(F)F)oc23)CC1", "activity change, negative = growth inhibition": "inactive: -7.11%"}, {"smiles": "Cc1ccc(NC(=O)N(CCC(=O)O)Cc2ccccc2)cc1", "activity change, negative = growth inhibition": "inactive: -13.1%"}, {"smiles": "CCN(C[C@H]1N[C@@](CC)(C(=O)OC)[C@H]2C(=O)N(C)C(=O)[C@@H]12)C(=O)C1CCCCC1", "activity change, negative = growth inhibition": "inactive: -2.65%"}, {"smiles": "Cc1ccc(C)c(-c2cc(C(=O)Nc3sc(C)c(C)c3C(N)=O)c3ccccc3n2)c1", "Potency": "inconclusive [inhibitor, single point]"}]}]}
